According to the RNAGym collection of RNA variant scans (doi:10.7554/elife.90254):
The source gives no read counts; variants with many changes may rest on few reads.

B1: LINE1-full (parent)
chain: UACGUAGGUGGUUUUCCCCUGAUAGUGCUAAGGGGGCCUGGAAGUUUGGACUGGGCAGAGCUCAACACAGCGUGGCAAAGUGGCUGUGGCUAGACUGCCUCUCUGGAUUCCUCGUCACUCAGCAGGGCAUCUCUGAGAGAAAUGCC

Variants of: B1
Assay: self-cleavage, relative activity (ratio to wild type); higher = more cleavage; in vitro, sequencing; the parent is a self-cleaving ribozyme

| Variant | self-cleavage |
| --- | --- |
| UACGUAGGUGGUCUUCCCCUGAUAGCGCUAAGGGGGCCUGGAAGUUUGGACUGGGCAGAGCUCAACACAGCGUGGCAAAGUGGCUGUGGCUAGGCUGCCUCUCUGGAUUCCUCGUCACUCAGCAGGGCGUCUCUGAGAGAAAUGCC [U13C U26C A94G A129G] | 1.84 |
| UACGUAGGUGGUCUUCCCCUGAUAGCGCUAAGGGAGCCUGGAAGUUUGGACUGGGCAGAGCUCAACACAGCGAGGCAAAGUGGCUGUGGCUAGACUGCCUCUCUGGAUUCCUCGUCACUCAGCAGGGCAUCUCUGAGAGAAAUGCC [U13C U26C G35A U73A] | 0.86 |
| UACGUAGGUGGUCUUCCCCUGAUAGUGCUAAGGGGGCCAGGAAGUAUGGACUGGGCAGAGCUCAACACAGCGUGGCAAAGUUGCUGUGGCUAGACUGCCUCUCUGGAUUCCUCGUCACUCAGCAGGGCAUCUCUGAGAGAAAUGCC [U13C U39A U46A G82U] | 0.49 |
| UACGUAGGUGGUCUUCCCCUGAUAGUGCCAAGGGGGCCUGGAAGUUUGGACUGGGCAGAGCUCAACACAGCGUGGCAAAGUGGCUGUGGCUAGACUGCCUCUCUGGAUUCCUUGUCACUCAGCAGGGCAUCUCUGAGAGAAAUGCC [U13C U29C C113U] | 1.47 |
| UACGUAGGUGGUCUUCCCCUGAUAGUGCAAAGGGGGCCUGGAAGUUUGGACUGGGCAGAGCUCAACACAGCGUGGCACAGUGGCUGUGGCUAGACUGCCUCUCUGGAUUCCUCGUCACUCAGCAGGGCAUCUCUGAGAGAAAUGCC [U13C U29A A78C] | 1.07 |
| UACGUAGGUGGUCUUCCCCUGAUAGGGCUAAGGGGGCCUGGAAGUUUGGACUGGGCGGAGCUCAACACAGCGUGGCAAAGUGGCUGUGGCUAGACAGCCUCUCUGGAUUCCUCGUCACUCAGCAGGGCGUCUCUGAGAGAAAUGCC [U13C U26G A57G U96A A129G] | 0 |
| UACGUAGGUGGUCUUCCCCUGACAGUGCUAAGGGGGCCUAGAAGUUUGGACUGGGCGGAGCUCAACACAGCGUGGCAAAGUGGCUGUGGCUAGACUGCCCCUCAGGAUUCCUCGUCACUCAGCAGGGCAUCUCUGAGAGAAAUGCC [U13C U23C G40A A57G U100C U104A] | 1.23 |
| UACGUAGGUGGUCUUCCCCUGAUAGGGCUAAGGGGGCCUGGAAGCUUGGACUGGGCAGAGCUCAACACAGCGUGGCAAAGUGGCUGUGGCUAGACUGCCUCUCUGGAUUCCUCGUCACUCAGCAGGGCAUCUCUGAGAGAAAUGCC [U13C U26G U45C] | 1.08 |
| UACGUAGGUGGUCUUCCCCUGAUAGGGCUAAGGGGGCCUGGAAGUUUGGACUGGGCAGAGCUCAACACAGCGUGGCAAAGUGGCAGUGGCUAGACUGCCUCUCUGGAUUCCUCGUCACUCAGCAGGGCAUCUCUGAGAGAAAUGCC [U13C U26G U85A] | 0.2 |
| UACGUAGGUGGUCUUCCCCUGAUAGUGCUAAGGGGGCCAGGAAGUUUGGGCUGGGCAGAGCUCAACACAGCGUGGCGAAGUGGCUGUGGCUAGACUGCCUCUCUGGGUUCCUCGUCACACAGCAGGGCAUCUCUGAGAGAAAUGCC [U13C U39A A50G A77G A107G U119A] | 1.15 |
| UACGUAGGUGGUCUUCCCCUGAUAGUGCCAAGGGGGCCUGGAAGUUUGGACUGGGCAGAGCUCAACACAGCGUGGCAAAGUGGCUGUGGCUAGACUGCCUCUCUGGAUUCCUCGUCACUCAGCAGGGCAUCUCUGAGAGUAAUGCC [U13C U29C A140U] | 1.02 |
| UACGUAGGUGGUCUUCCCCUGAUAGUGCCAAGGGGGCCUGGAAGUUAGGACUGGGCAGAGCUCAACACAGCGAGGCAAAGUGGCCGCGGCUUGACUGCCUCUCUGGAUUCCUCGUAACUCAGCAGGGCAUCUCUGAGAGAAAUGCC [U13C U29C U47A U73A U85C U87C A92U C116A] | 0.24 |
| UACGUAGGUGGUCUUCCCCUGAUAGUGCAAAGGGGGCCUGGAAGUUCGGACUGGGCAGAGCUCAACACAGCGUGGCAAAGUGGCUGUGGCUAGACGGCCUCUCUGGAUUCCUCGUCACUCAGCAGGGCAUCUCUGAGAGAAAUGCC [U13C U29A U47C U96G] | 0.71 |
| UACGUAGGUGGUCUUCCCCUGAUAGCGCUGAGGGGGCCUGGAAGUUUGGACUGGGCAGAGCUCAACACAGCGUGGCAAAGUGGCUGUGGCUAGACUGCCUCUCUGGAUUCCUCGUCACUCAGCAGGGCAACCCUGAGAGAAAUGCC [U13C U26C A30G U130A U132C] | 1.84 |
| UACGUAGGUGGUCUUCCCCUGAUAGCGCUAAGGGGGCCUGGAAGUUUGGACUGGGCAGAGCACAACCCAGCGUGGCAAAGUGGCUGUGGCUAGACUGCCACUCUGGAUUCCUCGUCACUCAGCAGGGCAUCUCUGAGAGAAAUGCC [U13C U26C U62A A67C U100A] | 0 |
| UACGUAGGUGGUCUUCCCCUGAUAGCGCUAAGGGGGCCUGGAAGUUUGGACUGGGCAGACCUCAACGCAGCGUGGCAAAGUGGCUGUGGCAAGACUGCCUCUCUGGAUUCCUCGUCACUCAGCAGGGCAUCUCCGAGAGAAAUGCC [U13C U26C G60C A67G U91A U134C] | 0 |
| UACGUAGGUGGUCUUCCCCUGAUAGAGCUAAGGGGGCCUGGAAGUUUGGACUGGGCAGAGCUCAACACAGCGUAGCAAAGUGGCUGUGGCUAGACUGCCUCUCUGGAUUCCUCGUCACUCAGCAGGGCAUCUCUGAGAGAAAUGCC [U13C U26A G74A] | 0.55 |
| UACGUAGGUGGUCUUCCCCUGAUAGCACUAAGGGGGCCUGGAAGUUUGGACUGGGCAGAGCUCAACACAGCGUGGCAAAGUGGCUGUGGCUAGACUGCCUCUCUGGAUUCCUCGUCACUCAGCAGGGCAUCUCUGAGAGAAAUGCC [U13C U26C G27A] | 1.03 |
| UACGUAGGUGGUCUUCCCCUGAUAGCGCUAAGGGGGCCUGGAAGUUUGGGCUGGGCAGAGCUCAACACAGCGUGGCAAAGUGGCUGUGGCUAGACUGCCUCUCUGGAUUCCUCAUCACUCAGCAGGGCAUCUCUGAGAGAAAUGCC [U13C U26C A50G G114A] | 0.82 |
| UACGUAGGUGGUCUUCCCCUGAUAGAGCUAGGGGGGCCUGGAAGUUUGGACUGGGCAGAGCUCAACACAGCGUGGCAAAGUGGCUGUGGCUAGACUGCCUCUCUGGAUUCCUCGUCACUCAGCAGGGCAUCUCUGAGAGAAAUGCC [U13C U26A A31G] | 1.38 |
